Results reported in PubChem BioAssay AID1768 (National Center for Advancing Translational Sciences (NCATS), 2009).
The campaign covered roughly 270,000 compounds. About 620 (0.23%) were called active. Inconclusive results, whose numbers are uncertain, are shown with a selection of clear calls. The call rests on the fitted dose curve; in most records, active means well fitted inhibition curve with a large enough effect in the polarisation, with a control signal flat (not every such curve was filed as active); inconclusive means small, poorly fitted or top-dose-only effect, or effect the other way, or a change in a side signal; inactive means no such curve, though single readings can be large or run the other way; the % refers to the polarisation. Potencies of inconclusive entries are doubtful fits and often do not repeat. A note “side channel” means that the fit belongs to a control or component signal, not to the main read-out.

target: Menin (Homo sapiens) (UniProt O00255); assay: qHTS Assay for Inhibitors Targeting the Menin-MLL Interaction in MLL Related Leukemias: Competition With Texas Red Labeled MLL-derived Mutant Peptide; settings: fluorescence polarization; series mostly up to 61.6 µM
Sequence of UniProt O00255 (O00255 whole entry, looked up): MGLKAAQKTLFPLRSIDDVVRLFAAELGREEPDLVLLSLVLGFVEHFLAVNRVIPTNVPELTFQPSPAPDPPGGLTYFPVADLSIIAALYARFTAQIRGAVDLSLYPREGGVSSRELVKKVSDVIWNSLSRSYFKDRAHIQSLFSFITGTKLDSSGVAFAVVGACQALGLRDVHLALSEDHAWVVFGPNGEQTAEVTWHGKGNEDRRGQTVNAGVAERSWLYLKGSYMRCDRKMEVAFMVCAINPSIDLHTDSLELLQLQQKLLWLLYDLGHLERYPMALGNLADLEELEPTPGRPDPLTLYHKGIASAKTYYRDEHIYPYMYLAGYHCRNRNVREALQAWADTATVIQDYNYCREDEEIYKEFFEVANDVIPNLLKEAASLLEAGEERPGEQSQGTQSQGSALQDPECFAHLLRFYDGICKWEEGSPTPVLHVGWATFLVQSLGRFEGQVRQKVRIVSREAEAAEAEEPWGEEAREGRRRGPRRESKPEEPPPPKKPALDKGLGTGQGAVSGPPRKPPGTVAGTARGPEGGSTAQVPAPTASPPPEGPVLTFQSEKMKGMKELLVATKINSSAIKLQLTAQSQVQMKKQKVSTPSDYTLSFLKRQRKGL
Potency means the concentration at half of the fitted maximal effect; tags describe the fitted curve by direction and shape or compound fluorescence and quenching.

Row | SMILES | Potency
1 | Cc1cccc(OCC(=O)N/N=C/C=C/c2ccco2)c1 | inconclusive: 31.6 µM [quencher, side channel, single point]
2 | O=C(Nc1ccc(Cl)c(Cl)c1)Nc1ccc(N2CCCC2)c(S(=O)(=O)Nc2ccccc2Cl)c1 | inconclusive: 5.62 µM [quencher, side channel, partial curve]
3 | Cc1c(C)n(Cc2ccccc2)c2ccc(C(=O)OCCN(C)C)cc12 | inconclusive: 1.58 µM [fluorescent, side channel, full curve, poor fit]
4 | COc1ccc(CN2CCN(CCCCOc3ccc(Cl)cc3)CC2)c(OC)c1OC | inconclusive: 22.4 µM [inhibitor, single point]
5 | O=S(=O)(Nc1ccc(N2CCOCC2)cc1)c1ccc2ccccc2c1 | inconclusive: 28.2 µM [quencher, side channel, single point]
6 | O=C(CS(=O)c1ccc(C(F)(F)F)cc1[N+](=O)[O-])Oc1ccc(Cl)cc1 (stereo not drawn) | inconclusive: 39.8 µM [quencher, side channel, single point]
7 | CCOC(=O)c1cccc2c1-c1ccccc1/C2=N/O | inconclusive: 12.6 µM [quencher, side channel, partial curve]
8 | CCN(CC)S(=O)(=O)c1ccc2c(c1)c(=O)c(C(=O)NCc1cccs1)cn2C | inconclusive: 39.8 µM [fluorescent, single point]
9 | O=C(Nc1ccccc1)Nc1snnc1C(=O)Nc1cccc(O)c1 | inconclusive: 3.16 µM [inhibitor, single point]
10 | COc1ccccc1C1=NN(C(=S)Nc2ccccc2)C(c2ccco2)C1 (stereo not drawn) | inconclusive: 39.8 µM [inhibitor, single point]
11 | Nc1ccc(-c2nnc(-c3ccccc3)o2)cc1 | inconclusive: 0.708 µM [inhibitor, full curve, poor fit]
12 | O=C(Cc1ccc(Cl)c(Cl)c1)Nc1cccc(S(=O)(=O)N2CCOCC2)c1 | inconclusive: 20 µM [quencher, side channel, partial curve]
13 | Cn1c(=O)oc2cc(S(=O)(=O)N3CCN(c4ccccc4F)CC3)ccc21 | inconclusive: 35.5 µM [fluorescent, side channel, single point]
14 | Cc1ccc(CNC(=O)CCCC(=O)c2ccccc2)cc1 | inconclusive: 5.01 µM [quencher, side channel, single point]
15 | CCCCNC(=O)CCn1c(=O)c2ccccc2n(CC(=O)N2CC(C)CC(C)C2)c1=O (stereo not drawn) | inconclusive: 0.708 µM [inhibitor, partial curve, poor fit]
16 | CC(C)C(=O)NC(=S)Nc1ccccc1N1CCN(C(=O)c2ccccc2)CC1 | inconclusive: 3.16 µM [inhibitor, full curve, poor fit]
17 | Fc1ccc(C2=Nc3cccc4cccc(c34)N2)cc1 | inconclusive: 0.891 µM [quencher, side channel, full curve, poor fit]
18 | N#CC1(c2ccccc2)CCC(NCCc2ccccc2)CC1 (stereo not drawn) | inconclusive: 39.8 µM [inhibitor, single point]
19 | CCOc1ccc2nc(SC3CC(=O)N(c4ccc(C)cc4)C3=O)sc2c1 (stereo not drawn) | inconclusive: 10 µM [quencher, side channel, partial curve]
20 | CCN(c1nc(N)c(C(=O)N=C(N)N)nc1Cl)C(C)C | inconclusive: 15.8 µM [fluorescent, side channel, partial curve]
21 | O=C(O)c1ccc(-c2ccc(-c3ccccc3)cc2)s1 | inconclusive: 15.8 µM [quencher, side channel, partial curve]
22 | CCn1c2ccccc2c2cc(/C=N/NC(=O)c3cc(O)cc(O)c3)ccc21 | inconclusive: 2.82 µM [quencher, side channel, full curve, poor fit]
23 | O=C(NCC1CCCO1)c1sc(=S)n2c1[nH]c(=O)c1ccc(C(=O)N3CCCCC3)cc12 (stereo not drawn) | inconclusive: 20 µM [quencher, side channel, partial curve]
24 | CCN(CC)S(=O)(=O)c1ccc(/C=C/C(=O)OCC(=O)Nc2ccc(S(N)(=O)=O)cc2)cc1 | inconclusive: 39.8 µM [fluorescent, single point]
25 | CN(C)S(=O)(=O)c1cc(NC(=O)CNCc2ccc(F)cc2)ccc1Cl | inconclusive: 35.5 µM [inhibitor, partial curve]
26 | CN(Cc1c(F)cccc1Cl)C(=O)C1CC(=O)N(CCc2ccccc2)C1 (stereo not drawn) | inconclusive: 20 µM [fluorescent, side channel, single point]
27 | CCS(=O)(=O)Nc1ccc(-c2nc3cccnc3s2)cc1 | inactive

Row | SMILES | Potency
28 | CCCn1c(Nc2nc3ccccc3n2C)nc2ccccc21 | inconclusive: 12.6 µM [quencher, side channel, partial curve]
29 | CC(=O)Nc1ccc(S(=O)(=O)Nc2nc3ccccc3nc2Nc2ccccc2)cc1 | inconclusive: 28.2 µM [quencher, single point]
30 | COc1cccc(-c2ocnc2C(=O)Nc2ccc(N3CCOCC3)cc2N2CCOCC2)c1 | inconclusive: 22.4 µM [quencher, side channel, single point]
31 | Cn1nc(CC(=O)Nc2ccc3c(c2)OCCO3)c2ccccc2c1=O | inactive
32 | CCCCNC(=S)NCc1ccc2[nH]c3c(c2c1)CCCC3 | inconclusive: 11.2 µM [quencher, side channel, partial curve]
33 | COc1ccc(Cl)cc1NS(=O)(=O)c1cccc2cccnc12 | inconclusive: 39.8 µM [fluorescent, side channel, single point]
34 | C#CCOCCOCCOCCNc1nc(N2CCN(C(=O)[C@H](CCCCN)n3cc([C@@H](N)C(C)CC)nn3)CC2)nc(N2CCN(C(=O)[C@H](Cc3ccc(O)cc3)n3cc([C@@H](N)C(C)CC)nn3)CC2)n1 (stereo partly drawn) | inconclusive: 2.82 µM [fluorescent, side channel, partial curve]
35 | CCOC(=O)C(C)Sc1nc(-c2cccs2)ccc1C#N (stereo not drawn) | inconclusive: 39.8 µM [quencher, side channel, single point]
36 | O=C1Nc2cc(Cl)c(Cl)cc2N(O)N1c1cc(Cl)cc(Cl)c1 | inconclusive: 25.1 µM [quencher, side channel, partial curve]
37 | S=c1[nH]nc(-c2cc3ccccc3o2)n1Cc1ccccc1 | inactive
38 | COC(=O)c1ccc(CN(c2ccc(C(=O)O)c(O)c2)S(=O)(=O)c2ccc(Cl)c([N+](=O)[O-])c2)cc1 | inconclusive: 14.1 µM [quencher, side channel, partial curve]
39 | Cc1cc(C(=O)N/N=C/c2cc(N=Nc3ccccc3)ccc2O)n[nH]1 | inconclusive: 3.98 µM [quencher, side channel, full curve, poor fit]
40 | COc1ccc(CCNc2oc(-c3ccc(OC)c(OC)c3)nc2C#N)cc1 | inconclusive: 12.6 µM [quencher, side channel, partial curve]
41 | O=[N+]([O-])c1ccc(NCCNS(=O)(=O)c2ccccc2)c(C(F)(F)F)c1 | inconclusive: 14.1 µM [quencher, side channel, partial curve]
42 | CC(C)(C)NS(=O)(=O)c1ccc2[nH]c3c(c2c1)CCCCC3 | inconclusive: 3.16 µM [inhibitor, full curve]
43 | C/C(=N\NS(=O)(=O)c1ccc(C)c([N+](=O)[O-])c1)c1cccs1 | inconclusive: 11.2 µM [quencher, side channel, partial curve]
44 | Cc1nc2c(ccc3nc(NC(=O)Cc4ccccc4)sc32)s1 | inconclusive: 20 µM [quencher, single point]
45 | CCOC(=O)c1c(NC(=O)CSc2nnnn2-c2ccccc2)sc2c1CC(C)(C)NC2(C)C | inconclusive: 0.631 µM [inhibitor, full curve, poor fit]
46 | CCCCN(C)C(=S)Nc1ccsc1C(=O)OC | inactive
47 | Cc1cccc(OCC(=O)NNC(=O)c2ccc([N+](=O)[O-])cc2)c1 | inconclusive: 39.8 µM [quencher, single point]
48 | CC1=CC(C)(C)Nc2ccc(OC(=O)C(Cc3ccccc3)N3C(=O)c4ccccc4C3=O)cc21 (stereo not drawn) | inconclusive: 17.8 µM [quencher, side channel, single point]
49 | CO[C@@H]1C[C@H](O[C@H]2[C@@H](C)[C@H](O[C@@H]3O[C@@H](C)C[C@@H](N(C)C)[C@@H]3OC(C)=O)[C@H](C)C[C@]3(CO3)C(=O)[C@H](C)[C@H](OC(C)=O)[C@H](C)[C@H](C)OC(=O)[C@@H]2C)O[C@H](C)[C@@H]1OC(C)=O | inactive
50 | Cc1ccc(-c2cc(C(=O)NCCc3ccccn3)c3ccccc3n2)c(C)c1 | inactive
51 | CSCC[C@H](NC(=O)[C@H](Cc1ccccc1)NC(=O)[C@H](Cc1cnc[nH]1)NC(=O)CNC(=O)[C@@H](NC(=O)[C@H](C)NC(=O)[C@H](Cc1c[nH]c2ccccc12)NC(=O)[C@H](CC(C)C)NC(=O)[C@H](CC(N)=O)NC(=O)CN)[C@@H](C)O)C(N)=O | inactive
52 | CN(CCC1CCCCO1)C(=O)CCc1nnc(CCCCc2ccccc2)o1 (stereo not drawn) | inconclusive: 28.2 µM [fluorescent, side channel, partial curve]
53 | Cc1c(C(=O)NNC(=S)Nc2ccc(S(N)(=O)=O)cc2)oc2ccccc12 | inconclusive: 22.4 µM [quencher, side channel, partial curve]
